Test results published in the supplement of paper PMC7826260.
The other results are listed elsewhere or left out. The data describe in vitro nicking of single-stranded DNA by Rep domains (3 µM enzyme, 1 h, 37 °C); shown is the middle of each 90-letter strand. The score is log2 (uncut reads / reads without enzyme); more negative means more cut, near 0 not cut, and no call is made. Reads are scaled to the total; where an enzyme cuts many sequences, the uncut ones exceed 0.

How the values were obtained:
Assay in all cases: uncleaved DNA left, log2 of reads against the no-enzyme library (log2 ratio); higher = less cleavage (more negative = more Rep cleavage of the k-mer); sequences stand for … in CTCGTCCG…ACCGGAGA
[1] = system: T1, Rep nickase domain of Muscovy duck circovirus
T1 sequence (protein, residues 1-111, tag omitted): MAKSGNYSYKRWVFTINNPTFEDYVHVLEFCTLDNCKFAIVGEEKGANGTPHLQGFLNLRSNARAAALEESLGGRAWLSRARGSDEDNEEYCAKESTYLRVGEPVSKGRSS
Description: (§1)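 A pool of 90-nt single-stranded DNAs with seven random bases just before the constant AC of the nick site (name = the seven bases) was cut by 3 µM recombinant His6-SUMO-tagged Rep nickase domain (300 nM DNA, 50 mM HEPES pH 8.0, 50 mM NaCl, 1 mM MnCl2, 1 h, 37 °C, three replicates). Uncut DNA was amplified and sequenced.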

[2] = system: T2, Rep nickase domain of banana bunchy top virus
T2 sequence (protein, residues 1-94, tag omitted): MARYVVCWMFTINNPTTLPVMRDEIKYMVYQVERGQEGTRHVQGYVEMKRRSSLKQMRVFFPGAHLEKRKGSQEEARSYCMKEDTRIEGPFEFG
Description: as §1

[3] = system: T3, Rep nickase domain of cabbage leaf curl virus
T3 sequence (protein, residues 1-116, tag omitted): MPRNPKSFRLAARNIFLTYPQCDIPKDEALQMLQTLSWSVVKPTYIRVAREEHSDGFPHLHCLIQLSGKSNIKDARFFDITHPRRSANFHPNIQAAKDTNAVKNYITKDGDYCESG
Description: as §1

[4] = system: T4, Rep nickase domain of chickpea chlorotic dwarf virus
T4 sequence (protein, residues 1-124, tag omitted): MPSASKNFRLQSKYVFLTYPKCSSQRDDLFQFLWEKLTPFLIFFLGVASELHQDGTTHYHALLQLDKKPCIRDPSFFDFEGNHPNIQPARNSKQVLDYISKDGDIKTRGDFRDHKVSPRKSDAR
Description: as §1

[5] = system: T5, Rep nickase domain of faba bean necrotic yellows virus
T5 sequence (protein, residues 1-98, tag omitted): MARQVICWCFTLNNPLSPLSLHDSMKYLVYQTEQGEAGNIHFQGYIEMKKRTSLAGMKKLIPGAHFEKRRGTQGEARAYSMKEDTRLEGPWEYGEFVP
Description: as §1

[6] = system: T6, Rep nickase domain of maize striate mosaic virus
T6 sequence (protein, residues 1-117, tag omitted): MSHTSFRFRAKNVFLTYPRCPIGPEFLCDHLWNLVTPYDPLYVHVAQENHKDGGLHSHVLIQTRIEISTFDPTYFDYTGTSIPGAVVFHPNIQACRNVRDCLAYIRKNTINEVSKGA
Description: as §1

[7] = system: T7, Rep nickase domain of porcine circovirus 2
T7 sequence (protein, residues 2-116, tag omitted): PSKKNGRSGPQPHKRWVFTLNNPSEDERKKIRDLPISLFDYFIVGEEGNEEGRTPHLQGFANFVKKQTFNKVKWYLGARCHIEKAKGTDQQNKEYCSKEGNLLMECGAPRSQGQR
Description: as §1

[8] = system: T8, Rep nickase domain of tomato golden mosaic virus
T8 sequence (protein, residues 1-124, tag omitted): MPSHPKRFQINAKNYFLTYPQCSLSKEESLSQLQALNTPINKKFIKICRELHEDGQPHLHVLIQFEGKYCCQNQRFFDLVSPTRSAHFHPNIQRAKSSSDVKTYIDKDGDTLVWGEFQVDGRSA
Description: as §1

[9] = system: T9, Rep nickase domain of tomato yellow leaf curl virus
T9 sequence (protein, residues 1-136, tag omitted): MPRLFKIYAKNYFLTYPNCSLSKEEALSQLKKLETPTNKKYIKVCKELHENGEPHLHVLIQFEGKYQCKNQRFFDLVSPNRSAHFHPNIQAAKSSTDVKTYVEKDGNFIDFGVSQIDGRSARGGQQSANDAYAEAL
Description: as §1

[10] = system: T10, Rep nickase domain of wheat dwarf virus
T10 sequence (protein, residues 1-137, tag omitted): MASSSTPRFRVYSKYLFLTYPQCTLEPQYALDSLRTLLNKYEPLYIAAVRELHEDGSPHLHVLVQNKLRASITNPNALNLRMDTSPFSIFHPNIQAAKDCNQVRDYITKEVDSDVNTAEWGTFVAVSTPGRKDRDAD
Description: as §1

Sequence | uncleaved DNA left (log2) [1] | uncleaved DNA left (log2) [2] | uncleaved DNA left (log2) [3] | uncleaved DNA left (log2) [4] | uncleaved DNA left (log2) [5] | uncleaved DNA left (log2) [6] | uncleaved DNA left (log2) [7] | uncleaved DNA left (log2) [8] | uncleaved DNA left (log2) [9] | uncleaved DNA left (log2) [10]
TCGACAA | 0.0755 | -0.0604 | 0.125 | 0.597 | -0.062 | 0.834 | 0.0739 | 0.00527 | 0.0279 | 0.173
GGTCGAC | 0.00664 | 0.083 | 0.793 | 1.82 | 0.0507 | 2.16 | 0.264 | 0.0296 | 0.0347 | 0.136
GATCAAG | 0.0554 | 0.0509 | -0.649 | -0.479 | 0.0478 | -1.03 | 0.0725 | -0.008 | 0.0146 | -0.0181
AGACTTA | 0.00258 | 0.0877 | 0.51 | 0.657 | 0.0592 | 1.42 | -0.0541 | -0.0264 | 0.0753 | 0.0671
CTAGTAG | 0.117 | 0.0266 | -0.681 | -0.577 | 0.0412 | -1.16 | 0.134 | -0.0596 | 0.00852 | 0.00743
TAGTTAC | 0.0345 | 0.0215 | 0.114 | -1.59 | -0.0158 | -0.233 | -2.52 | -0.0882 | 0.107 | 0.0505
GAGATTG | -0.0215 | 0.0557 | -0.0183 | 1.25 | 0.0115 | 1.05 | -0.0143 | -0.00264 | 0.0235 | 0.0166
CCGTTAT | -0.269 | -0.115 | 0.0762 | -0.463 | -0.0406 | -0.147 | -2.17 | 0.00215 | 0.0264 | -0.116
TTTGCAT | 0.0785 | -0.0124 | -0.526 | -0.728 | 0.0123 | -0.98 | 0.0294 | -0.0396 | 0.0717 | -0.0997
TACTCAC | -0.165 | -0.0186 | -0.153 | -0.954 | 0.0282 | -0.487 | -1.43 | -0.056 | -0.0664 | 0.0465
GGCTAAG | 0.16 | 0.159 | -0.0225 | 0.0871 | 0.138 | -0.244 | 0.243 | 0.0932 | 0.21 | 0.0503
GTTGGTG | 0.0392 | -0.00402 | -0.281 | -0.176 | 0.122 | -0.606 | 0.162 | 0.0424 | 0.121 | -0.0304
CGTAGTT | 0.0285 | 0.0406 | 0.00468 | -1.09 | -0.0866 | -0.0541 | -0.407 | -0.0189 | 0.00527 | -0.103
TAGCTAT | 0.0318 | -0.00345 | -0.272 | -2.16 | -0.0221 | 0.387 | -3.19 | -0.0763 | -0.00519 | -0.091
TACGGGA | 0.00936 | -0.0728 | 0.312 | 0.351 | -0.033 | 0.571 | 0.0579 | 0.052 | 0.00199 | -0.0504
TCCGTGA | -0.022 | 0.0492 | 0.463 | 0.646 | 0.0169 | 0.395 | 0.095 | -0.0253 | 0.0808 | 0.00105
CTCATGC | -0.0631 | -0.0353 | -0.544 | -0.449 | -0.0981 | -1.15 | 0.118 | -0.097 | 0.0216 | -0.114
GGTCACT | -0.0187 | -0.0113 | 0.601 | 1.3 | -0.0523 | 2.03 | -0.0458 | 0.0359 | 0.0499 | 0.0492
GATTTCG | -0.0784 | 0.0128 | -0.804 | -0.0983 | 0.00914 | -0.886 | 0.0784 | -0.173 | -0.00953 | -0.224
GCCGCAT | -0.112 | -0.0774 | 0.28 | 0.71 | -0.0584 | 0.568 | 0.0485 | -0.137 | 0.00141 | 0.00381
GCAAATC | -0.0435 | -0.0207 | -0.0167 | 0.232 | -0.153 | -0.281 | -0.00897 | -0.0739 | -0.083 | -0.0783
GAGGTAC | -0.0345 | 0.0017 | 0.42 | 1.07 | -0.167 | 1.66 | 0.116 | -0.0211 | -0.0496 | 0.026
AGTCTCC | -0.103 | -0.176 | 0.118 | 0.383 | -0.0658 | 1.26 | -0.062 | -0.0805 | -0.1 | -0.0878
CAACGAA | -0.0148 | 0.022 | -0.19 | -0.907 | 0.0316 | -0.981 | -0.0277 | 0.00473 | -0.157 | -0.105
TCAGCTA | -0.0131 | 0.0251 | 0.207 | -0.404 | -0.00171 | 0.387 | 0.0895 | 0.0569 | -0.0034 | -0.0125
CTACCAT | -0.147 | -0.0747 | -0.322 | -2.51 | 0.00327 | -0.627 | -0.788 | -0.25 | -0.0286 | -0.0621
CAGTTGA | -0.0792 | -0.15 | -0.0921 | -0.572 | -0.101 | -1.11 | -2.53 | 0.0428 | -0.167 | -0.123
TTCCTAT | 0.176 | 0.131 | 0.384 | -0.629 | 0.143 | 0.00391 | 0.122 | 0.222 | 0.0697 | 0.192
TAGAGCC | -0.0552 | -0.0891 | -0.0272 | 0.143 | -0.0418 | -0.531 | -0.46 | -0.141 | -0.0882 | -0.127
AATTCGG | -0.0199 | -0.0124 | 0.474 | 1.35 | 0.0502 | 1.49 | -0.0101 | 0.137 | -0.0956 | 0.102
